Measured values taken from PMC12098989 (Nature Communications, 2025).

Molecular target: T1, SENP5 catalytic domain (aa 568-755) (human, UniProt Q96HI0 568-755)
T1 sequence: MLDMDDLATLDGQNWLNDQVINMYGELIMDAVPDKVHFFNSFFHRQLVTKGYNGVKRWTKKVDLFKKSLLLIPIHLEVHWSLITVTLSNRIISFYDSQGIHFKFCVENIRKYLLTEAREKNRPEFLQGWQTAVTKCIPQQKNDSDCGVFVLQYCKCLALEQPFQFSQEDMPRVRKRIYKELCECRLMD
Assay: crystal structure

B1: Δ14SUMO2-PA (human SUMO2, 14 residues N-terminal deletion, C-terminal propargylamide) (domain or fragment)
chain: not shown
  binding result: binds
